Laboratory results taken from PubChem BioAssay AID624417 (National Center for Advancing Translational Sciences (NCATS), 2012).
Out of some 410,000 compounds screened, about 6,400 (1.6%) were called active. Inconclusive means that the source gave no clear call. Such entries were picked first, then a sample of the others. Calls come from the whole dose curve; as a rule, active = well fitted inhibition curve with a large enough effect; inconclusive = small, poorly fitted or top-dose-only effect; inactive = no such curve, though single readings can be large or run the other way. Potencies of inconclusive entries are left out as doubtful fits.

target: Glucagon-like peptide 1 receptor (Homo sapiens) (UniProt P43220); assay: qHTS of GLP-1 Receptor Inverse Agonists (Inhibition Mode); details: HEK293 GLP-1R CRE-luciferase, luminescence, 24 h, GLP-1R form is constitutively active; series mostly up to 38.3 µM; note: nearly all actives have a fitted effect of over 55% in size
Chain of UniProt P43220 (P43220 whole entry, looked up): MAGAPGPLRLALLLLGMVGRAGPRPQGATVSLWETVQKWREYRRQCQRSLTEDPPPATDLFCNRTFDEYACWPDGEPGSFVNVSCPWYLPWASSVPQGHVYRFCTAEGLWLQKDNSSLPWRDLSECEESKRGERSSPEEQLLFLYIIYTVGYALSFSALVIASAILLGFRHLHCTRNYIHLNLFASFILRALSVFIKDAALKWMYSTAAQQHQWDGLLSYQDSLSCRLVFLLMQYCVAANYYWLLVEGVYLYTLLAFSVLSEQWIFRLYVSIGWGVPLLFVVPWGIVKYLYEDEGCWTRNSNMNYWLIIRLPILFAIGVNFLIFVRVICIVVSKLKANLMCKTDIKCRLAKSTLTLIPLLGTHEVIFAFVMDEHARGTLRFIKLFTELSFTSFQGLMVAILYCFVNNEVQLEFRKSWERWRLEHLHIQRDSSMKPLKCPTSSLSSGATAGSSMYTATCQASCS
In short: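 Assay principle: reduced luminescence from a cAMP-responsive reporter in HEK293 cells co-expressing a constitutively active GLP-1R. Conditions: 24 hr compound incubation, 37 deg C, 5% CO2.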
Potency is the fitted concentration of half-maximal effect; tags give direction and shape of the fitted curve.

| SMILES | Potency |
| --- | --- |
| COc1cc(C(=O)N2CCN(c3cccc(Cl)c3)CC2)ccc1OCC(=O)N1CCOCC1 | inactive |
| CC(C)c1ccc(NC(=O)[C@@H](C)NC(=O)[C@@H]2Cc3ccccc3CN2)cc1 | inconclusive [inhibitor, single point] |
| Cc1cc(N2CCCCC2)nc(-c2ccc(Br)cc2)n1 | inconclusive [inhibitor, single point] |
| O=C(O)c1cccc2cccc(-c3c4ccc(=O)c(O)c-4oc4c(O)c(O)ccc34)c12 | inactive |
| O=S(=O)(Nc1ccc(Br)cc1F)c1ccc2nc(-c3ccccc3)[nH]c2c1 | inconclusive [inhibitor, single point] |
| Cc1ccccc1NC1=C(Cl)C(=O)N(C2CCCCC2)C1=O | inconclusive [inhibitor, partial curve, poor fit] |
| Fc1cc(NCc2ccccc2)nc(NCc2ccccc2)n1 | inconclusive [inhibitor, single point] |
| Fc1ccccc1-c1nc(NCc2ccco2)c2ccccc2n1 | inconclusive [inhibitor, single point] |
| CCCOC(=O)NC(CC)COC(=O)Nc1cc(C)ccc1C (stereo not given) | inconclusive [inhibitor, partial curve, poor fit] |
| O=C(NCCc1ccccc1)c1ccc2c(c1)N(Cc1ccc(F)cc1)C(=O)c1ccccc1S2(=O)=O | inconclusive [inhibitor, partial curve, poor fit] |
| CC(C)c1ccc(NC(=O)c2cc3sc(Cl)cc3n2C)cc1 | inactive |
| Cc1ccccc1C(=O)c1cccn1CC(=O)NCC(C)c1ccccc1 (stereo not given) | inconclusive [inhibitor, partial curve, poor fit] |
| Cc1cccc(N(CC(O)Cn2c3ccccc3c3ccccc32)S(=O)(=O)c2ccc(F)cc2)c1 (stereo not given) | active: 12.6 µM |
| O=C(Nc1ccccc1)c1cc(C2CCCCN2C(=O)c2cccs2)on1 (stereo not given) | inconclusive [inhibitor, partial curve, poor fit] |
| COc1ccc2oc(C(=O)NCC(Cc3ccccc3)N(C)C)c(C)c2c1 (stereo not given) | inconclusive [inhibitor, partial curve, poor fit] |
| COc1ccc(S(=O)(=O)NCCN2CCOCC2)cc1Br | inactive |
| Cc1ccc(C2C=CC(C#N)=CN2Cc2ccccc2)cc1 (stereo not given) | inconclusive [inhibitor, single point] |
| COc1ccc(OC)c(CNS(=O)(=O)c2ccc3c(c2)CCCN3C(C)=O)c1 | inactive |
| CC(=O)Nc1ccc(-c2csc(NC(=O)CCCc3cccs3)n2)cc1 | inconclusive [inhibitor, partial curve] |
| O=C(N/N=C/c1ccc(OCCCF)cc1)c1cc(OCC(F)(F)F)ccc1OCC(F)(F)F | inactive |
| COc1cccc(-c2nc(-c3ccc4c(c3)-c3ccccc3S4(=O)=O)c(-c3ccccc3)[nH]2)c1OC | inactive |
| COc1ccc([C@H]2CC(=O)C=C(c3ccc(Br)c4ccccc34)C2)cc1 | inconclusive [inhibitor, single point] |

| SMILES | Potency |
| --- | --- |
| C#Cc1ccc(NC(=O)C2(C)CCN2C(=O)C2(c3ccccc3)CC2)cc1 (stereo not given) | inconclusive [inhibitor, partial curve, poor fit] |
| CN(CCCNC(=O)c1cc2c(Cl)nc3ccccc3c2s1)Cc1ccccc1 | inconclusive [inhibitor, partial curve, poor fit] |
| Cc1c(Cl)cccc1NC(=O)CSc1ncc2c(n1)-c1ccccc1N(C)S2(=O)=O | inactive |
| CC(=O)c1ccc(Nc2nc(C(N)Cc3ccc(C(F)(F)F)cc3)cs2)cc1 (stereo not given) | inconclusive [inhibitor, partial curve, poor fit] |
| COC(=O)c1cc2ccsc2n1CC(=O)Nc1cc(Cl)ccc1OC | inconclusive [inhibitor, partial curve, poor fit] |
| CCOc1ccc(CCNC(=O)c2cnc3sc(N(CC)CC)nn3c2=O)cc1OCC | inactive |
| N#Cc1ccc(S(=O)(=O)NC2CCN(Cc3ccccc3)CC2)cc1 | inconclusive [inhibitor, full curve, poor fit] |
| CCC(C)C1NC(=S)N(C2CCCCC2)C1=O (stereo not given) | inconclusive [inhibitor, full curve] |
| COc1cccc(C(C)(O)c2nc(-c3csc4ccccc34)cs2)c1 (stereo not given) | inconclusive [inhibitor, partial curve, poor fit] |
| CCSc1ccc([C@@H]2[C@@H]3C(=O)N(CC)C(=O)[C@@H]3[C@]3(C(=O)OC)CCCN23)cc1 | inactive |
| CCCCOC(=O)c1ccc(NC(=S)NC(=O)c2c(Br)c(C)nn2C)cc1 | inactive |
| C=CCN(CC=C)CCOc1cccc2ccccc12 | inconclusive [inhibitor, single point] |
| Cc1ccc2onc(CC(=O)N3CCN(c4ccc(F)cc4)CC3)c2c1 | inactive |
| Cc1csc(N=Cc2ccc([N+](=O)[O-])o2)n1 | inconclusive [inhibitor, partial curve, poor fit] |
| CNC(=O)C1(C)Cc2c(-c3ccc4c(c3)OCO4)ccnc2O1 (stereo not given) | inconclusive [inhibitor, single point] |
| CCCN(CCC)c1ccc(/C=N/NC(=O)CN2CCOCC2)cc1 | inconclusive [inhibitor, single point] |
| CCOc1ccc(C(=O)Nc2nnc(C3=COCCO3)o2)cc1 | inactive |
| Cc1sc2ncnc(NC3CCN(Cc4ccccc4)CC3)c2c1C | inconclusive [inhibitor, partial curve, poor fit] |
| CC1(C(=O)NCC(F)(F)F)CCN1C(=O)Cc1ccc(-c2ccccc2)cc1 (stereo not given) | inconclusive [inhibitor, single point] |
| COc1ccc(NC2=Nc3cccc4cccc2c34)cc1OC | inactive |
| COc1cc(C(=O)NCc2ccncc2)cc(Br)c1OCc1ccccc1 | inconclusive [inhibitor, single point] |
| CN(Cc1cccnc1)Cc1cn[nH]c1-c1ccc(-c2ccccc2)cc1 | inconclusive [inhibitor, single point] |

| SMILES | Potency |
| --- | --- |
| Cc1cccc(NC(=S)NC(=O)c2ccc(Br)o2)c1 | inconclusive [inhibitor, partial curve, poor fit] |
| CN(Cc1ccc(Cl)c(Cl)c1)C(c1cc2ccccc2o1)c1nnnn1C(C)(C)C (stereo not given) | inconclusive [inhibitor, single point] |
| Cc1ccccc1S(=O)Cc1ccc(C(=O)N2CCN(c3cccc(C)c3C)CC2)o1 (stereo not given) | active: 1.12 µM |
| COc1ccc(N(CC(=O)NCC(C)C)S(=O)(=O)c2ccccc2)cc1 | inconclusive [inhibitor, partial curve, poor fit] |
| C/C=C(/C)C(=O)OC1c2c(ccc3ccc(=O)oc23)OC(C)(C)C1OC(=O)/C(C)=C\C (stereo not given) | inconclusive [inhibitor, partial curve, poor fit] |
| C=C1C(=O)[C@]23C[C@H]1CCC2[C@]1(C)CCC[C@@](C)(C(=O)O)C1C[C@@H]3O (stereo not given in full) | active: 1.78 µM |
| CCn1c(=O)c(C(=O)CN(C)CC(=O)Nc2ccccc2Br)c(N)n(Cc2ccccc2)c1=O | inconclusive [inhibitor, single point] |
| Cc1ccccc1CS(=O)(=O)CCC(=O)NCCCN1CCN(c2ccccc2F)CC1 | inconclusive [inhibitor, single point] |
| CC(C)C1C(=O)N(Cc2cn(Cc3ccco3)nn2)CCS(=O)(=O)N1Cc1ccc(-c2ccccc2)cc1 (stereo not given) | inconclusive [inhibitor, single point] |
| O=C(CSc1nc2ccccc2o1)Nc1nc(-c2ccccc2)cs1 | inconclusive [inhibitor, partial curve, poor fit] |
| O=C(N/N=C/c1c(O)ccc2ccccc12)c1[nH]ncc1Br | inconclusive [inhibitor, partial curve, poor fit] |
| COc1cnc(-c2ccccn2)nc1NC(C)C | inconclusive [inhibitor, partial curve, poor fit] |
| O=C(NCCc1ccccc1)c1c(O)c2ccccc2[nH]c1=O | inactive |
| COc1cc(C2CC(=O)N(c3ccc(C)c(Cl)c3)C3=C2C(=O)OC3)cc(OC)c1OC (stereo not given) | inactive |
| C=CC[C@H](CC(=O)N(CCO)Cc1ccccc1)C(=O)N[C@H](COC(=O)[C@@H](CC=C)CC(=O)OC(C)(C)C)Cc1ccccc1 | inconclusive [inhibitor, partial curve, poor fit] |
| Cc1cccc(-c2cc(C(=O)Nc3cccnc3)c3ccccc3n2)c1 | inconclusive [inhibitor, single point] |
| Cc1cc2nc(-c3ccc(F)cc3)c(Cc3cccc(Cl)c3)n2c(C)c1Br | inconclusive [inhibitor, partial curve, poor fit] |
| CC(C)(C)c1cc(C(=S)N2CCCC2)cc(C(C)(C)C)c1O | active: 8.91 µM |
| Cc1nc(SC(C)C(=O)NCC2CCCO2)c2cc(-c3ccccc3)sc2n1 (stereo not given) | inconclusive [inhibitor, partial curve, poor fit] |
| O=C(Nc1ccc(Oc2ccc(C(F)(F)F)cn2)c(Cl)c1)C1CC1 | inconclusive [inhibitor, partial curve, poor fit] |
| CSc1cccc(NC(=S)N(Cc2ccccc2)Cc2ccccn2)c1 | inconclusive [inhibitor, partial curve, poor fit] |
